# In the supplement of paper PMC3334620:
# Whole data set: some 33,000 sequences, median “E-score (-0.5 to 0.5)” near -0.012, cut for the highest 2% near 0.27. This is one part of the list.
# Biological target: T1, Vhr1 (UniProt P40522)
# T1 sequence: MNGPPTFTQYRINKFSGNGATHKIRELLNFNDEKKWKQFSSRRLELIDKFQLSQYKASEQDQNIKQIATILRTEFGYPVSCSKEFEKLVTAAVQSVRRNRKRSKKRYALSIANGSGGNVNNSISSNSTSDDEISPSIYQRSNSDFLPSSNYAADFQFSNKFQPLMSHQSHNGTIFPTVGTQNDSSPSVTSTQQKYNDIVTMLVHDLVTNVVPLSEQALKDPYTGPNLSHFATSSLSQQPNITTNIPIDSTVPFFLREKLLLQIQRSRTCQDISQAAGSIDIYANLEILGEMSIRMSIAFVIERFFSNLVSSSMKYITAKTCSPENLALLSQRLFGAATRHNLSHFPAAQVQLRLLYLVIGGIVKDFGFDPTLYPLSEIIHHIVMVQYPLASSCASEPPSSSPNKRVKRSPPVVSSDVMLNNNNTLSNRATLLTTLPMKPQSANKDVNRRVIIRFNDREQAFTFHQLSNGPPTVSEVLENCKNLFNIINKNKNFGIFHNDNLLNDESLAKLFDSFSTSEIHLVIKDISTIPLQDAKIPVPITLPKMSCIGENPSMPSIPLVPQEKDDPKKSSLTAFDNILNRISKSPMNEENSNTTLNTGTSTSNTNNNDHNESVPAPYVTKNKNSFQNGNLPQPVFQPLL
# Experiment: PBM E-score (8-mer binding enrichment) (E-score (-0.5 to 0.5)); higher = stronger / more preferred TF binding; most listed sequences are background and not binding sites
# Details: protein concentration: 200 nM; construct: GST-full length
# Method in brief: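 Yeast transcription factors carrying a GST tag, as full-length proteins or DNA-binding domains, were produced by PURExpress in vitro transcription/translation. About 100-200 nM protein was applied to universal all-10-mer Agilent arrays, double-stranded by primer extension on fresh or once-stripped slides. Bound protein was detected with fluorescent anti-GST, and scans were normalised with masliner. The Universal PBM Analysis Suite gave each ungapped eight-base word, pooled with its reverse complement, an E-score, a modified Wilcoxon-Mann-Whitney statistic.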
row,Sequence,PBM E-score
1,ACTTATAA,0.0164
2,TCTGAGAA,-0.131
3,ATAAGTCA,0.242
4,CAAGCCCG,-0.136
5,AGGTGTGG,0.0849
6,ACCTGTGA,0.259
7,GTCTAGGA,-0.0176
8,GTATTTTA,-0.074
9,AGATGGCG,0.058
10,CACCATAA,0.103
11,ATCATTCG,0.269
12,TACCAGCA,0.0525
13,GGGAGCAC,-0.135
14,ACGGTACA,0.126
15,AATGGTCG,-0.00024
16,AAGGGGGT,-0.111
17,CAGTCCTC,-0.135
18,ATCCCGTC,0.0792
19,CAAGCCGC,-0.0978
20,GCTTTGTA,0.131
21,ATTGCATG,0.214
22,CCCTGCCC,-0.116

row,Sequence,PBM E-score
1,AGTAAATG,0.0178
2,AACGATCC,0.0159
3,ACTTTGAG,0.0115
4,GACGGCCA,-0.0928
5,ATAAAGAG,-0.102
6,AAACGTGT,-0.191
7,CACTGATG,0.0443
8,GCGCCGTA,-0.0405
9,TCATGAGA,0.101
10,CAAAGGAG,-0.0104
11,CATGACGA,0.22
12,GACACTCC,0.148
13,CCAGGAGC,-0.139
14,ATCCAATG,-0.0286
15,CTCATGGA,0.0273
16,GGGATGTA,0.0546
17,AAGAGACC,-0.183
18,GTATTGAC,0.172
19,ACGACCGA,0.0413
20,GGGGAAAC,0.115
21,CCTTTTAA,-0.244
22,CTGCGATA,-0.0648

row,Sequence,PBM E-score
1,AAGAGCCA,0.175
2,GACACATC,0.196
3,GATATAGC,0.00139
4,AGATACGG,-0.0974
5,TAAAGGGA,-0.0415
6,AAGTCCGA,-0.205
7,GTTTCTCA,-0.136
8,TAGAGGCA,-0.188
9,CACCATCA,0.0797
10,AAGCTGGA,0.00624
11,AACTGGTG,0.124
12,CAAGCCCA,-0.0389
13,CAATCGAA,0.0913
14,AAATTTTA,-0.274
15,GCGCCACA,0.0101
16,AGACGCCC,0.035
17,CCAAAATC,0.142
18,AACGTGAT,0.0785
19,CCGATTGA,0.0861
20,CCATGGCG,0.0959
21,CTTAAAGC,-0.306
22,CCACTGGA,-0.0245

row,Sequence,PBM E-score
1,ATCCTGAG,-0.0118
2,ATGTGCCA,6e-05
3,CCTATCCC,0.121
4,AATTACAG,-0.0043
5,AGCAGTAT,0.0788
6,AACGTATT,-0.00015
7,GGGGAGAC,-0.0539
8,CAGCTAAA,-0.119
9,CAACATGA,0.3
10,GCCTTTCC,-0.323
11,GCATATCA,0.115
12,GCGTTAAA,-0.0751
13,AAACCAAT,0.124
14,GGAAACCC,-0.0855
15,AACTCAGA,0.0696
16,AAAATGCA,-0.161
17,CCTTTCCG,-0.181
18,CTTCACGC,-0.117
19,CACAGTGC,0.136
20,CTCCCGAA,-0.169
